The other results are listed elsewhere or left out. The data describe in vitro nicking of single-stranded DNA by Rep domains at 3 µM enzyme and 37 °C for 1 h; the strands have 90 letters, of which the middle is given. Uncut reads are compared with the no-enzyme pool on a log2 scale; strong cutting gives strongly negative numbers. There is no active / inactive call. The scaling is to total reads; uncut strands gain when others are lost, and binding without cutting may add a little.
What was measured:
Assay in all cases: uncleaved DNA left, log2 of reads against the no-enzyme library (log2 ratio); higher = less cleavage (more negative = more Rep cleavage of the k-mer); sequences stand for … in CTCGTCCG…ACCGGAGA
[1] = test system: T1, Rep nickase domain of Muscovy duck circovirus
T1 sequence (protein, residues 1-111, tag omitted): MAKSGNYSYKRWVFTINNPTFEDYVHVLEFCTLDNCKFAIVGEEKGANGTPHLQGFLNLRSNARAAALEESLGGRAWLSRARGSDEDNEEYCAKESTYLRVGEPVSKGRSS
Description: (§1)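 A pool of 90-nt single-stranded DNAs with seven random bases just before the constant AC of the nick site (name = the seven bases) was cut by 3 µM recombinant His6-SUMO-tagged Rep nickase domain (300 nM DNA, 50 mM HEPES pH 8.0, 50 mM NaCl, 1 mM MnCl2, 1 h, 37 °C, three replicates). Uncut DNA was amplified and sequenced.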

[2] = test system: T2, Rep nickase domain of banana bunchy top virus
T2 sequence (protein, residues 1-94, tag omitted): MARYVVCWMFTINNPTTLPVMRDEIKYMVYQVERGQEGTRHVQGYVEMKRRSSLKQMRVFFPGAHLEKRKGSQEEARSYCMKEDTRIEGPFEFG
Description: as §1

[3] = test system: T3, Rep nickase domain of cabbage leaf curl virus
T3 sequence (protein, residues 1-116, tag omitted): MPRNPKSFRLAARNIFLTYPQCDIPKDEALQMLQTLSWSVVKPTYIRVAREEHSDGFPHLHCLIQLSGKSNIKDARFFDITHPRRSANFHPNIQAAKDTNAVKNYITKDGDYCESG
Description: as §1

[4] = test system: T4, Rep nickase domain of chickpea chlorotic dwarf virus
T4 sequence (protein, residues 1-124, tag omitted): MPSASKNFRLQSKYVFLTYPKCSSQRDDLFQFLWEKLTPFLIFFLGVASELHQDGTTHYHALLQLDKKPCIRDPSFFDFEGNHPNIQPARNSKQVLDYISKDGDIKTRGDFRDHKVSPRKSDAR
Description: as §1

[5] = test system: T5, Rep nickase domain of faba bean necrotic yellows virus
T5 sequence (protein, residues 1-98, tag omitted): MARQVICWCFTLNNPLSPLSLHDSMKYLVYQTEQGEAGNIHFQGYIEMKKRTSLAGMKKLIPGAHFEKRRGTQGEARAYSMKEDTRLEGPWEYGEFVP
Description: as §1

[6] = test system: T6, Rep nickase domain of maize striate mosaic virus
T6 sequence (protein, residues 1-117, tag omitted): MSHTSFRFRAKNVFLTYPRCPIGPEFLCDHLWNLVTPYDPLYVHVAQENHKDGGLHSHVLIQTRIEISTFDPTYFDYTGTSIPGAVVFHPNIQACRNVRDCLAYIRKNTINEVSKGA
Description: as §1

[7] = test system: T7, Rep nickase domain of porcine circovirus 2
T7 sequence (protein, residues 2-116, tag omitted): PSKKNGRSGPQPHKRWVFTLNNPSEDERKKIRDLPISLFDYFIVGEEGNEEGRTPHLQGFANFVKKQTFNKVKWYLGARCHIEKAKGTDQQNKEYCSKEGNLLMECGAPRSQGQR
Description: as §1

[8] = test system: T8, Rep nickase domain of tomato yellow leaf curl virus
T8 sequence (protein, residues 1-136, tag omitted): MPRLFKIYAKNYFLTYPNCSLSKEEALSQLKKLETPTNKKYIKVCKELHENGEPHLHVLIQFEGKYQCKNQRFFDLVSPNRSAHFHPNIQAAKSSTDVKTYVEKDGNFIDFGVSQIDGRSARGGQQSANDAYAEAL
Description: as §1

[9] = test system: T9, Rep nickase domain of wheat dwarf virus
T9 sequence (protein, residues 1-137, tag omitted): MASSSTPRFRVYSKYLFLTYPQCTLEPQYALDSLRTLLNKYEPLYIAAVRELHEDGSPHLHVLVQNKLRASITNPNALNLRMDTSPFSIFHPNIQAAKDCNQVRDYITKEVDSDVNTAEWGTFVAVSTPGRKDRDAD
Description: as §1

Sequence | uncleaved DNA left (log2) [1] | uncleaved DNA left (log2) [2] | uncleaved DNA left (log2) [3] | uncleaved DNA left (log2) [4] | uncleaved DNA left (log2) [5] | uncleaved DNA left (log2) [6] | uncleaved DNA left (log2) [7] | uncleaved DNA left (log2) [8] | uncleaved DNA left (log2) [9]
AGGATAA | 0.153 | 0.137 | 0.284 | 0.931 | 0.0899 | 1.07 | 0.198 | 0.159 | 0.125
CCTCTAC | 0.000606 | -0.0204 | -0.117 | -2.06 | 0.162 | -0.622 | 0.144 | 0.0863 | 0.0518
TTGCCAA | -0.12 | -0.102 | -0.13 | 0.0303 | -0.0607 | -0.645 | -0.471 | 0.0416 | 0.0493
GAGATTT | 0.086 | -1.1 | 0.476 | -0.469 | -0.457 | 1.63 | -3.03 | 0.128 | 0.166
ACGAGGA | 0.0112 | 0.0211 | 0.159 | 0.354 | 0.16 | -0.386 | -0.0945 | -0.0659 | 0.0339
TTCGACC | 0.0447 | 0.0561 | -0.0319 | -0.0264 | 0.0815 | -0.858 | -0.0185 | -0.0622 | -0.104
AATACAG | 0.0439 | 0.0119 | -0.708 | -1.07 | 0.0148 | -1.07 | 0.19 | 0.0674 | -0.0647
CGATGAG | 0.0614 | 0.181 | -0.498 | -0.248 | 0.12 | -0.859 | 0.26 | 0.0989 | -0.0249
GTATCTC | -0.0353 | 0.0604 | 0.352 | 0.868 | -0.00487 | 1.61 | 0.129 | 0.124 | 0.0697
GTGAGGA | 0.13 | 0.117 | 0.33 | 0.826 | 0.0886 | 0.689 | 0.126 | 0.0577 | 0.123
AGGAGAC | 0.101 | 0.0606 | 0.562 | 1.54 | 0.0667 | 1.46 | 0.255 | 0.0583 | 0.15
GTGCGCT | -0.0652 | -0.0779 | -0.342 | -0.26 | 0.0996 | -0.28 | 0.0561 | -0.0761 | -0.134
GAACCTA | -0.167 | -0.0734 | 0.0266 | -0.918 | -0.158 | 0.798 | -0.444 | -0.0495 | -0.00364
GTCTCGT | -0.0836 | -0.0313 | 0.226 | 0.658 | -0.0234 | 1.64 | 0.0419 | 0.07 | -0.0362
TTTTCGC | -0.0624 | -0.0764 | -0.521 | -0.874 | -0.065 | -1.13 | 0.0539 | -0.0505 | -0.205
CAGCAAC | 0.0571 | -0.058 | -0.11 | -1.43 | 0.0522 | -0.684 | -0.156 | -0.0814 | 0.0515
CTTCTTT | -0.0245 | -0.0791 | -0.221 | -2.32 | 0.0083 | -0.768 | -0.53 | 0.0313 | -0.114
CTGTAAC | 0.0848 | 0.0702 | -0.34 | -1.64 | 0.128 | -0.511 | 0.0168 | -0.0351 | -0.102
ATAACCT | -0.0611 | 0.0165 | -0.383 | -2.39 | 0.0474 | -0.652 | -0.697 | -0.0679 | 0.0228
GATCGCA | 0.0768 | 0.0846 | 0.0306 | -0.0456 | -0.0602 | -0.392 | 0.0381 | 0.0697 | 0.00586

Sequence | uncleaved DNA left (log2) [1] | uncleaved DNA left (log2) [2] | uncleaved DNA left (log2) [3] | uncleaved DNA left (log2) [4] | uncleaved DNA left (log2) [5] | uncleaved DNA left (log2) [6] | uncleaved DNA left (log2) [7] | uncleaved DNA left (log2) [8] | uncleaved DNA left (log2) [9]
CGAAACT | 0.0716 | 0.00614 | -0.154 | -2.24 | -0.00838 | -0.222 | -0.168 | 0.106 | 0.19
TTCTCCC | 0.00244 | -0.217 | 0.00733 | -0.0234 | -0.0968 | 0.607 | -0.146 | -0.0393 | -0.138
ACAGCCG | 0.0706 | -0.108 | -0.549 | 0.684 | -4.61e-05 | -0.0496 | 0.144 | 0.0156 | -0.0391
TATTCCG | -0.134 | -0.0285 | -0.863 | -0.0743 | 0.0596 | -0.972 | 0.0633 | -0.0947 | -0.0574
TGGCCTT | 0.0321 | 0.00178 | 0.409 | 0.0975 | 0.01 | 1.1 | -0.165 | 0.153 | 0.194
CTGGGGT | 0.0602 | 0.0432 | 0.393 | 1.08 | -0.129 | 1.45 | 0.152 | -0.00398 | 0.128
CAAGAGC | 0.0511 | 0.101 | -0.273 | -0.272 | 0.0426 | -1.12 | 0.225 | 0.0789 | 0.0334
AAGGTAA | 0.161 | 0.126 | 0.297 | 1.06 | 0.163 | 1.16 | 0.21 | 0.127 | 0.174
CCGAGCG | -0.0999 | 0.0221 | -0.383 | -0.0662 | 0.0458 | -0.815 | 0.151 | 0.237 | -0.0128
CTTATGC | -0.131 | -0.0298 | -0.567 | -0.587 | -0.115 | -1.25 | 0.037 | -0.0265 | -0.035
ATGCTTA | -0.0631 | -0.247 | -0.331 | -1.37 | -0.132 | -0.696 | -0.361 | -0.111 | -0.218
GGGGAGT | 0.0212 | 0.0656 | 0.815 | 2.01 | 0.0305 | 2.33 | 0.17 | 0.0522 | 0.254
ACCCTGA | -0.0523 | -0.136 | -0.299 | -0.111 | -0.156 | -0.677 | -0.187 | -0.274 | -0.122
AGGCGAT | 0.0991 | 0.0607 | 0.289 | 1.54 | -0.0345 | 1.79 | 0.235 | -0.186 | 0.03
AACGTAT | 0.0179 | -0.07 | -0.02 | -0.0515 | -0.0269 | 0.759 | -0.135 | -0.168 | -0.153
ACCTCAC | -0.101 | -0.043 | -0.0506 | -0.464 | -0.000564 | -0.402 | -0.0536 | -0.131 | 0.0674
ACTCAGT | 0.0955 | 0.0586 | -0.309 | -0.565 | 0.0127 | -1.04 | -0.802 | 0.0679 | -0.0109
GAAATTC | 0.0688 | 0.04 | 0.279 | 0.594 | 0.0469 | 0.758 | 0.0245 | 0.0678 | 0.0571
TATCTAA | 0.0224 | 0.142 | 0.204 | -0.223 | 0.0936 | -0.238 | -0.0409 | 0.0877 | 0.154
AGGACGG | -0.129 | 0.101 | 0.0289 | 0.822 | -0.128 | 1.63 | -0.0102 | -0.124 | 0.0642

Sequence | uncleaved DNA left (log2) [1] | uncleaved DNA left (log2) [2] | uncleaved DNA left (log2) [3] | uncleaved DNA left (log2) [4] | uncleaved DNA left (log2) [5] | uncleaved DNA left (log2) [6] | uncleaved DNA left (log2) [7] | uncleaved DNA left (log2) [8] | uncleaved DNA left (log2) [9]
TGCCCGC | 0.0862 | 0.119 | 0.336 | 0.269 | 0.0459 | 0.221 | 0.0257 | 0.081 | 0.084
GCGCTGA | -0.129 | -0.168 | -0.0318 | 0.478 | -0.0352 | 1.5 | -0.108 | -0.24 | -0.0511
AGGCGCT | -0.0402 | -0.082 | -0.207 | -0.405 | -0.118 | -0.286 | -0.139 | -0.0643 | -0.103
TGTGGTG | -0.0205 | -0.0443 | -0.47 | -0.652 | 0.018 | -0.672 | 0.0782 | 0.0771 | -0.152
AGTCGTT | -0.0137 | -0.297 | -0.0341 | -1.12 | -0.564 | -0.225 | -3.1 | 0.0293 | 0.0697
TACCAGG | -0.0213 | 0.0596 | 0.339 | 1.05 | 0.049 | 0.832 | 0.036 | 0.0331 | 0.0861
AATAGCA | 0.0391 | 0.029 | -0.485 | -1.43 | 0.1 | -1.13 | -0.0912 | 0.0731 | 0.0212
GCGCATT | -0.0141 | -0.169 | 0.524 | 1.18 | -0.0399 | 1.64 | -0.0358 | -0.043 | 0.089
GCTTACG | -0.0429 | -0.00345 | -0.784 | -0.662 | -0.0646 | -0.961 | 0.117 | -0.0775 | -0.188
ACACCGC | -0.137 | -0.0695 | -0.592 | -0.566 | -0.0511 | -0.976 | 0.122 | -0.255 | -0.148
GGCATAT | 0.0802 | 0.0322 | 0.707 | 1.72 | -0.103 | 2.11 | 0.132 | 0.0723 | 0.147
TATCTGC | 0.031 | -0.0283 | -0.3 | -0.518 | -0.00662 | -0.941 | 0.116 | 0.0593 | 0.000705
AGAACCG | -0.117 | -0.0769 | -0.171 | 0.197 | -0.0397 | -0.61 | 0.0631 | -0.115 | 0.0324
GGGTCGA | -0.0417 | 0.0653 | 0.83 | 1.92 | -0.0475 | 2.21 | 0.231 | 0.0655 | 0.111
TTGGAGG | 0.23 | 0.0088 | 0.473 | 1.1 | 0.212 | 1 | 0.146 | 0.0627 | -0.115
ATCTGAC | 0.09 | 0.0897 | -0.0166 | 0.604 | 0.0837 | 0.352 | 0.187 | 0.0561 | 0.0783
AGCAGTC | 0.111 | 0.0452 | 0.118 | 0.431 | 0.16 | -0.0566 | 0.0356 | -0.0237 | 0.0563
ACGAAGA | -0.0446 | 0.0429 | -0.0622 | -0.0457 | 0.125 | -0.973 | 0.155 | -0.0928 | 0.0197
ACGCAAC | -0.086 | -0.152 | -0.158 | -0.942 | -0.0458 | -0.613 | 0.111 | -0.00549 | -0.0923
GTAAGTT | 0.0484 | 0.187 | -0.601 | -1.47 | 0.0801 | 1.55 | 0.184 | 0.124 | -0.0278

Reference: the supplement of paper PMC7826260
